Source: the supplement of paper PMC3334620
The full ranking holds about 33,000 sequences; the median of “E-score (-0.5 to 0.5)” is about -0.053, and the highest 2% start at about 0.37. This is one part of the list.

What follows are sequences tested against Hap1 (UniProt P0CE41) (assay: PBM E-score (8-mer binding enrichment) (E-score (-0.5 to 0.5)); higher = stronger / more preferred TF binding; most listed sequences are background and not binding sites). Details: protein concentration: 200 nM; construct: GST-DNA-binding domain.
Summary of the method: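 Each ungapped eight-base word and its reverse complement, pooled, received an E-score from the Universal PBM Analysis Suite. Underlying scans, normalised with masliner, recorded fluorescent anti-GST bound to GST-tagged yeast transcription factors. These were applied at about 100-200 nM to universal all-10-mer Agilent arrays double-stranded by primer extension.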

Sequence of UniProt P0CE41 (P0CE41 whole entry, the tested form may be a part): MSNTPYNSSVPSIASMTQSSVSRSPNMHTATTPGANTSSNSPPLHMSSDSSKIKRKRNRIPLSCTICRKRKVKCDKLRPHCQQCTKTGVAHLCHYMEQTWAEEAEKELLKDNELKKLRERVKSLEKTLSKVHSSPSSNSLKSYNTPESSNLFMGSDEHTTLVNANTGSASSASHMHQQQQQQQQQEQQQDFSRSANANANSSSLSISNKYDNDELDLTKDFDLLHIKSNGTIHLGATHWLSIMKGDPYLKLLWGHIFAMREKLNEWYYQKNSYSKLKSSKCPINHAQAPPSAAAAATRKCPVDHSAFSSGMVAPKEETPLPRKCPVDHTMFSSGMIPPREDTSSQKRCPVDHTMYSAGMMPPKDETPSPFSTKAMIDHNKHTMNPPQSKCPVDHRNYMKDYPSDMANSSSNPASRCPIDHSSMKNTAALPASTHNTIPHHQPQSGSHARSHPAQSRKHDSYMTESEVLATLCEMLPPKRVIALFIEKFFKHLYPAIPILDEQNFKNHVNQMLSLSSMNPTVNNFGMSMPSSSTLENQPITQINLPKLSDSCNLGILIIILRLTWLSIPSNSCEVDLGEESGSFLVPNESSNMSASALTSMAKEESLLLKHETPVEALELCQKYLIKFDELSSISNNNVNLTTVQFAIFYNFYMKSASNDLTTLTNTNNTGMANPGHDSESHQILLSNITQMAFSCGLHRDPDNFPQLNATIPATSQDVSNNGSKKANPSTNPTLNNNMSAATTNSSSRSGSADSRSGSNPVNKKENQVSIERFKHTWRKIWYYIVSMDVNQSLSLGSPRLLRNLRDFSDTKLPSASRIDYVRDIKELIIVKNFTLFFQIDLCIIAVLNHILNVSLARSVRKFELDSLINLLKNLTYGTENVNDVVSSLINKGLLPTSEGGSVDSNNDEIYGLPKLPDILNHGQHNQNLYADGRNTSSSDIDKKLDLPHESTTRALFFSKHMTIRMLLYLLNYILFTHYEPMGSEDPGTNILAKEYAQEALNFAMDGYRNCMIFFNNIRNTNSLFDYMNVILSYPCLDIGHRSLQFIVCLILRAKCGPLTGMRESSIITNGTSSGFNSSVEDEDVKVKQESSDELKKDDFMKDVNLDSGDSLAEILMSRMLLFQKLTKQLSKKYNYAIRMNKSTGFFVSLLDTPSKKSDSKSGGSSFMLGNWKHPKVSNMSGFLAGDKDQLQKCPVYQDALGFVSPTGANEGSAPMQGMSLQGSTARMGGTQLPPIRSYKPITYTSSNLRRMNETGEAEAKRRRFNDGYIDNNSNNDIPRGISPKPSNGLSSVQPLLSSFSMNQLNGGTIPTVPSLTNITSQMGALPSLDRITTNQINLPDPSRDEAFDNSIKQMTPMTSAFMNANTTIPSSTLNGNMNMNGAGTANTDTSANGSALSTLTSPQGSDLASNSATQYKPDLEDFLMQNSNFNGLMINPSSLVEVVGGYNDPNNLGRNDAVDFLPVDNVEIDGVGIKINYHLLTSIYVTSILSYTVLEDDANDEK

Sequence	PBM E-score
GTCGGCGA	0.218
CAGCTCAG	-0.183
AATGGTGT	-0.0527
ATATTTCC	0.427
CCTGTCCC	-0.0962
TATGCCGA	0.313
CGCTCCAC	-0.0525
CATTTTAG	0.137
ACAGCCTC	-0.234
TCTTTACA	-0.0952
TAGAGCAA	-0.296
ATTCGAAG	-0.149
AGCTAAAA	-0.0324
ATGGCATG	-0.0873
GGTCGAAA	0.117
GACCCTAC	0.105
AGGGCCTC	-0.0802
CGCGGTAA	0.311
AAGGCTGT	-0.102
GGTACTCA	-0.177
ATAGCGAT	-0.102
CCCTTCAC	-0.265
GGTTCGTA	0.0156
CTGCCGTA	-0.193
GCACCATA	-0.188

Sequence	PBM E-score
TATCACAA	-0.0889
CTTTTGTC	0.1
AAACTTCG	0.0798
AACAGACG	-0.0207
GCAAAGAC	-0.0209
ACATCGGC	0.298
GCATTCAC	0.115
ACAATAGT	-0.0759
AAGAATAA	-0.256
GTCGTATA	-0.0879
AAGGAGCT	-0.166
CTACATGC	-0.161
ACTTGGAA	-0.215
ATCTGGCA	-0.153
CCAGACGA	-0.0873
ACGGCAAG	-0.00661
AATGCCAC	-0.092
AACTCAAG	-0.212
AGTTGGTA	-0.181
GCGACCCC	0.0909
ACTTGGCG	-0.135
CGAAAGCG	-0.00421
AATGGAAC	0.00471
AAGAATAG	-0.171
ACCAGAGC	-0.00361

Sequence	PBM E-score
GGGACATA	0.0939
CCTTGTCG	-0.241
ATCTCATG	-0.201
AGGGCTCC	-0.192
CAGATCTG	-0.17
AATTAAGT	0.0567
CGACAAAC	-0.0074
AATTCAGA	-0.118
CGTCGTAC	-0.0489
ACTGGAGC	0.00473
GGCACGAA	-0.0657
CAAAAGCG	0.0304
ACAAAACT	-0.132
GGAATTCA	0.0418
CACGGGGG	0.109
TGACCTCA	-0.226
CTTGGCAA	-0.293
CAATGCTG	-0.128
GGAGTACA	0.017
CCAAAAGG	-0.269
GTTGATCA	-0.132
GAATAGAC	-0.138
GTGGGTGA	0.0464
GAAACCGA	0.274
ACTGATGA	-0.338

Sequence	PBM E-score
CCTCAATC	0.0231
ACATAATA	-0.0217
AATCTAGG	-0.128
ACAGTGTG	-0.29
AGCGTGTA	-0.0986
CCAGCAGA	-0.196
CTGCAAGC	-0.0709
CTGATCAA	-0.0332
CATCGGAG	0.292
CGCTGACG	-0.0759
TATGTGCA	-0.184
TATAAACA	-0.132
GTCTGCCA	-0.155
ACGAAACA	-0.101
AAATTAAA	0.0667
ACTGGCCA	-0.236
GTCTCCGA	0.332
AATCTGCC	0.173
GCATCAGA	-0.122
GTACCCTA	-0.197
AACGTCTT	-0.223
GTCACAAA	-0.105
AATTCTCT	-0.163
CCCCGGAG	0.393
CAGTTTGA	-0.101

Sequence	PBM E-score
ACACCTGT	-0.114
GCCGCTCC	0.18
AAGGCGCT	-0.0886
CGCTGCAA	-0.194
CCGTTCTC	0.0528
AAATAGGA	-0.021
AGAGGGTA	-0.233
AACTGCTG	-0.211
CGCAGCCG	0.0488
GATAATTA	0.21
CACTGACG	-0.147
CGCTCAAA	-0.0153
TAAGCGGA	0.115
CGTTAGCC	0.0859
CCCAACCC	-0.112
CAGAACTA	-0.105
ACGCCACT	-0.102
AGCTACCG	0.065
AGTGTACG	-0.0714
ATCCAATA	-0.0322
CCGAGCCC	0.32
CGCCGGTC	0.295
ATAGTTAA	0.0382
GATTGTGA	-0.00642
GACAGCTC	0.131

Sequence	PBM E-score
GAAAGGAC	0.194
GTTGAGCA	-0.113
CGAAGCGC	0.203
TACTCTCA	-0.175
GACAGGCC	0.0094
GCGGCAGA	0.0262
CGAAAGGC	0.115
AAAATTGA	-0.0494
AGTTTGCC	0.0853
CCCTACCA	-0.0985
TGGTCTAA	-0.138
CTACTGTA	-0.138
ATCGCGAC	0.00288
AGTTCGCA	0.0614
AACCGCAT	0.0775
CCCAACGG	0.123
ATCTAACC	0.064
AGAGGACA	-0.209
CGAAGGCG	0.158
GTGTCATA	0.00842
AATTGGCT	-0.0721
CGTTTAAC	0.046
ACTAAACT	-0.135
CGAGCTAG	0.0589
ATGACAAA	-0.265

Sequence	PBM E-score
CCTGAGAG	-0.155
AAGCCACC	-0.158
ACCCGTTC	0.196
CCCCCAAA	-0.373
TACCGCAA	0.08
CCTCTGAG	-0.12
ACACGTTG	-0.251
ATGCCCCG	0.282
AGAAACGA	-0.0519
ACATCCCC	0.247
GAGATCGC	0.0756
ACGGTGAG	0.0357
CATCCTGA	-0.0998
CCATGGTA	-0.0739
AATGTACC	-0.211
TGAACTAA	-0.137
GGATAACC	0.149
CTCGAGAG	-0.191
AAGTTATC	0.0681
CGTTTCCC	0.124
CCTACTCA	-0.105
GTAGGAGA	-0.116
AAAGACAG	-0.0463
GGCATAAA	0.102
CCCAGTAG	-0.00837

Sequence	PBM E-score
ACAGTGAA	-0.139
GACCTGAC	-0.205
AGAGGGCG	0.0396
AGCCCCTA	-0.145
GAGGCCCA	-0.0403
AAGCGGAG	-0.0297
CTCCGTAA	0.296
CGCGACAG	0.031
CGCACAGA	-0.0892
CCCATCTC	-0.111
AAGATCTT	-0.114
CTTTTTAA	-0.129
CGGCGTCA	0.168
CTCTGCAG	-0.247
CCCTTGAC	-0.205
CAACTATG	-0.168
CAGGACTA	-0.0953
CGATTTCA	-0.0807
CGTTTCCA	-0.121
CTCGTTTA	-0.0689
ACTATCAA	0.0295
CCAGCCGA	0.113
CGGAACTC	0.309
ACAAGCGG	0.157
AATAGACC	-0.0431

Sequence	PBM E-score
GATGTCAC	-0.076
ACCGTAAT	0.077
ATGAGAAC	-0.172
ATCATGAC	-0.233
CATGCTTA	-0.152
TCTAATCA	0.0846
GGATTTTA	0.323
CTACGTAG	-0.169
AAGCGTCT	-0.175
AAATCCTG	-0.118
CACCGTAC	-0.0117
CCTAAAGA	-0.141
GTAATCGA	-0.0107
AGTGGCTA	-0.223
ACGAACAC	-0.0365
TGGAAACA	-0.0875
GAGATTCA	-0.0135
AGGCCTTA	-0.25
TATTATCA	-0.0828
